{"source": "PubChem BioAssay (Tox21)", "key": {"[1]": {"assay": "qHTS assay for small molecules that induce genotoxicity in human embryonic kidney cells expressing luciferase-tagged ATAD5 - cell viability (AID 651634; calls by dose curve; also: potency is read from the fitted curve at half-maximal effect; nearly all actives have a fitted effect of over 25% in size)", "method_in_brief": "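HEK293T cells expressing luciferase-tagged ATAD5 were exposed to compound or DMSO for 15.5 hr at 37C, 5% CO2. Viability was then read as live-cell protease activity by CellTiter-Fluor fluorescence after 30 min at 37C.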"}, "[2]": {"assay": "qHTS assay for small molecule disruptors of the mitochondrial membrane potential (AID 720635); also: potency is read from the fitted curve at half-maximal effect", "conditions": "HepG2 mitochondrial membrane potential, Mito-MPS dye ratio; ratio activity, negative = MMP loss: at 83.2 µM (top of the series) unless noted", "method_in_brief": "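Mitochondrial membrane potential tracked with Mito-MPS dye, red aggregates (ex 540/em 590 nm) against green monomers (ex 490/em 535 nm). Compound treatment 1 hr at 37C, dye 30 min in HepG2.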"}, "[3]": {"assay": "qHTS assay for identifying genotoxic compounds that show differential cytotoxicity against isogenic chicken DT40 cell lines with known DNA damage response pathways - wild type cell line (AID 743012); also: nearly all actives have a fitted effect of over 60% in size; also: potency is read from the fitted curve at half-maximal effect", "conditions": "DT40 wild type chicken cells viability, CellTiter-Glo, 40 h; activity change, negative = cytotoxicity: at 68.4 µM (top of the series) unless noted", "method_in_brief": "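Parental DNA repair-proficient DT40 cells, 300 per well, were pre-incubated ~0.5 h at 37 C/5% CO2, pin-dosed with compounds in DMSO, then incubated 40 h. Viability was read as CellTiter-Glo luminescence after 30 min at room temperature.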"}, "[4]": {"assay": "qHTS assay for identifying genotoxic compounds that show differential cytotoxicity against isogenic chicken DT40 cell lines with known DNA damage response pathways - Rev3 mutant cell line (AID 743014); also: nearly all actives have a fitted effect of over 55% in size; also: potency is read from the fitted curve at half-maximal effect", "conditions": "chicken DT40 Rev3-/- viability, CellTiter-Glo, 40 h; activity, negative = cytotoxicity: at 68.4 µM (top of the series) unless noted"}, "[5]": {"molecular_target": "Estrogen receptor (Homo sapiens) (UniProt P03372)", "sequence (P03372 whole entry, looked up)": "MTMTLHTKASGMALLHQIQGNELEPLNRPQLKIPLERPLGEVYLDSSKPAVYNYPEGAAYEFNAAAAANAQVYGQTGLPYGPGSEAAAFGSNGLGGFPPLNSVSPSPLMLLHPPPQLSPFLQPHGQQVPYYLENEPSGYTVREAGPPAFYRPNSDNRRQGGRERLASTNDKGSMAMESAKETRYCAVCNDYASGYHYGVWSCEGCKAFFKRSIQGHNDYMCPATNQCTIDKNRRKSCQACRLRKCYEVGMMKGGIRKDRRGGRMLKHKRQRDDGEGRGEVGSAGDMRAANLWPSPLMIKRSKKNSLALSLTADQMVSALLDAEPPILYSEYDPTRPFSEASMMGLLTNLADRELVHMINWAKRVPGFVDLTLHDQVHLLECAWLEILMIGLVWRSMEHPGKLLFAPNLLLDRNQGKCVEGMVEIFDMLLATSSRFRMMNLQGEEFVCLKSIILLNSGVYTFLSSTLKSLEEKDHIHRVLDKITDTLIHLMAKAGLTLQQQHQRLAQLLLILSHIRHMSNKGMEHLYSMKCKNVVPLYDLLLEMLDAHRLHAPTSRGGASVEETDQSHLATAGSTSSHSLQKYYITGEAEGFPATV", "assay": "qHTS assay to identify small molecule antagonists of the estrogen receptor alpha (ER-alpha) signaling pathway (AID 743069; active = well fitted curve in the direction sought with a large enough effect in the signal ratio in the repeat runs, not every such curve was filed as active; inconclusive = weak or mixed curves, or effect the other way; inactive = no such curve, though single readings can be large or run the other way; the % refers to the signal ratio; also: potency is read from the fitted curve at half-maximal effect)", "conditions": "HEK293 ER-alpha-UAS-bla, beta-lactamase ratio, antagonist mode; activity, negative = inhibition: at 69.4 µM (top of the series) unless noted", "method_in_brief": "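ER-alpha-UAS-bla GripTite HEK293 line; 2% charcoal-stripped FBS overnight; plated, 4 hr 37C/5% CO2; cpd in DMSO + 17beta-estradiol, 18 hr 37C; LiveBLAzer B/G FRET substrate 2 hr RT; fluorescence intensity.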"}, "[6]": {"molecular_target": "Estrogen receptor (Homo sapiens) (UniProt P03372)", "assay": "qHTS assay to identify small molecule agonists of the estrogen receptor alpha (ER-alpha) signaling pathway using the BG1 cell line (AID 743079); also: % is scaled to controls: 0 for no effect and ±100 for the full control effect; nearly all actives have a fitted effect of over 20% in size", "conditions": "BG1Luc4E2 cells, ERE-luciferase agonist, 22 h; activation: at 70.3 µM (top of the series) unless noted"}, "[7]": {"molecular_target": "Aryl hydrocarbon receptor (Homo sapiens) (UniProt P35869)", "sequence (P35869 whole entry, looked up)": "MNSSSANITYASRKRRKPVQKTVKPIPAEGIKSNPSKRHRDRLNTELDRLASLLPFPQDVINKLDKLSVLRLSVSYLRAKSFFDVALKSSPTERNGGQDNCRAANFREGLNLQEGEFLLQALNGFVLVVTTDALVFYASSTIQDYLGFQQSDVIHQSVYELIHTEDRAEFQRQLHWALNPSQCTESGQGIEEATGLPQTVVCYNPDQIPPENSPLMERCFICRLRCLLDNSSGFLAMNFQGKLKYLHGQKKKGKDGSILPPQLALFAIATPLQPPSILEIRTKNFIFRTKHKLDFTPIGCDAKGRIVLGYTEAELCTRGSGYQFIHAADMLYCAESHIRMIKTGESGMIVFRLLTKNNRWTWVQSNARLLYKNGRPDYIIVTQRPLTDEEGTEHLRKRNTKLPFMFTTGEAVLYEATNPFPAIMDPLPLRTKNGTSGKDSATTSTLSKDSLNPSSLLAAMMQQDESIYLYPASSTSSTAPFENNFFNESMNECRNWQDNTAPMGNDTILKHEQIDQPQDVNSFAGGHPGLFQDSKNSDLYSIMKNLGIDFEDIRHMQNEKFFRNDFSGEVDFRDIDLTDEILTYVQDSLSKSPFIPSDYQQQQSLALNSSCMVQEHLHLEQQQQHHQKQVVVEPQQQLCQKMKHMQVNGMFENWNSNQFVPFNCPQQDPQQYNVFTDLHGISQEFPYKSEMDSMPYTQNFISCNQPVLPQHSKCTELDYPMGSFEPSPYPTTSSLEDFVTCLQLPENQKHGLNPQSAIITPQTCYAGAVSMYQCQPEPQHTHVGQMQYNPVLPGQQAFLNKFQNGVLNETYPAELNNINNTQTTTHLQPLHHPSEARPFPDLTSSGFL", "assay": "qHTS assay to identify small molecule that activate the aryl hydrocarbon receptor (AhR) signaling pathway (AID 743085); also: potency is read from the fitted curve at half-maximal effect; nearly all actives have a fitted effect of over 15% in size", "method_in_brief": "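Luminescence (ONE-Glo) from a dioxin-responsive-element luciferase reporter in HG2L7.5c1 HepG2 cells after 24 hr compound exposure at 37C; viability measured by CellTiter-Fluor fluorescence beforehand.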"}, "[8]": {"molecular_target": "Peroxisome proliferator-activated receptor gamma (Homo sapiens) (UniProt P37231)", "sequence (P37231 whole entry, looked up)": "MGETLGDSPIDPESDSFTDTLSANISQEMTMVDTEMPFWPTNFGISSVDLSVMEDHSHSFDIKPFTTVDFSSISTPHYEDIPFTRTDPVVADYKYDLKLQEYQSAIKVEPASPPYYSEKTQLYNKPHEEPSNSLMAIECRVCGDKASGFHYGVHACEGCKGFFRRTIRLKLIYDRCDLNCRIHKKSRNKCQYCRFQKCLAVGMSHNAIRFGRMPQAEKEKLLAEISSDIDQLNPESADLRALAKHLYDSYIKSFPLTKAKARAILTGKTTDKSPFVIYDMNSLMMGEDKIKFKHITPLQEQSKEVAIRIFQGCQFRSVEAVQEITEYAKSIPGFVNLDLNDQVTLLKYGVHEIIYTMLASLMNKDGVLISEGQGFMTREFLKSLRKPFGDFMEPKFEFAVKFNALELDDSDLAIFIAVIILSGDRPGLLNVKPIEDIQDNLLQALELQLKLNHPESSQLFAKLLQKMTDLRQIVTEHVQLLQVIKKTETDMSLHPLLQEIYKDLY", "assay": "qHTS assay to identify small molecule antagonists of the peroxisome proliferator-activated receptor gamma (PPARg) signaling pathway (AID 743191; calls by dose curve; also: % is scaled to controls: 0 for no effect and ±100 for the full control effect; nearly all actives have a fitted effect of over 30% in size)", "conditions": "HEK293H PPARg-UAS-bla, beta-lactamase ratio, antagonist, 17 h; ratio activity, negative = inhibition: at 62.6 µM (top of the series) unless noted", "method_in_brief": "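Beta-lactamase reporter under UAS control in HEK293H PPARg-bla cells; compound treatment 17 h at 37C. Read-out: fluorescence intensity after 1 h room-temperature incubation with LiveBLAzer B/G FRET substrate.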"}, "[9]": {"assay": "qHTS assay for small molecule agonists of the antioxidant response element (ARE) signaling pathway (AID 743202; active = well fitted activation curve with a large enough effect in the signal ratio in the repeat runs, not every such curve was filed as active; inconclusive = weak or mixed curves, or effect the other way; inactive = no such curve, though single readings can be large or run the other way; the % refers to the signal ratio; also: % is scaled to controls: 0 for no effect and ±100 for the full control effect)", "conditions": "HepG2 ARE-bla reporter, beta-lactamase FRET, 16 h; activation: at 73.3 µM (top of the series) unless noted", "method_in_brief": "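Quantitative high-throughput format in HepG2 cells bearing an integrated ARE-beta-lactamase reporter. Compound exposure lasted 16 h at 37 C, and fluorescence was read 2 h after adding LiveBLAzer B/G substrate at room temperature.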"}, "[10]": {"molecular_target": "Peroxisome proliferator-activated receptor delta (Homo sapiens) (UniProt Q03181)", "sequence (Q03181 whole entry, looked up)": "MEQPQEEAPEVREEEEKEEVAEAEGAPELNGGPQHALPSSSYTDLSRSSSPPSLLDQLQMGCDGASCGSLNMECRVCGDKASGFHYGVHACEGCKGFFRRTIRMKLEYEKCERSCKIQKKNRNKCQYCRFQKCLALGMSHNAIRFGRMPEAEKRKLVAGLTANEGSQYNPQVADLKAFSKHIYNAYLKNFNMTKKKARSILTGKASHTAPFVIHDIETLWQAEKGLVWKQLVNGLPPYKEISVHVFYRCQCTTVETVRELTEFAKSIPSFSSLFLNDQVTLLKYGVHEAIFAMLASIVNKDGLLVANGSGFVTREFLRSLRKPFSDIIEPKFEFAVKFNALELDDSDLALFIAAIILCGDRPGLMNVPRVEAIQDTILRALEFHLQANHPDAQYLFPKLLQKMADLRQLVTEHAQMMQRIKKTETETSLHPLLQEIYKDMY", "assay": "qHTS assay to identify small molecule antagonists of the peroxisome proliferator-activated receptor delta (PPARd) signaling pathway (AID 743215; active = well fitted inhibition curve with a large enough effect in the signal ratio in the repeat runs, not every such curve was filed as active; inconclusive = weak or mixed curves, or effect the other way; inactive = no such curve, though single readings can be large or run the other way; the % refers to the signal ratio; also: % is scaled to controls: 0 for no effect and ±100 for the full control effect)", "conditions": "HEK293H PPARd-UAS-bla, beta-lactamase FRET ratio, antagonist, 17 h; ratio activity, negative = inhibition: at 62 µM (top of the series) unless noted", "method_in_brief": "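PPARd UAS-bla HEK293H cells were pre-incubated 5 h at 37 C, then given test compounds in DMSO plus agonist L165041 (300 nM final). After 17 h at 37 C, beta-lactamase FRET substrate was added; fluorescence read after 2 h at room temperature.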"}, "[11]": {"molecular_target": "Bile acid receptor (Homo sapiens) (UniProt Q96RI1)", "sequence (Q96RI1 whole entry, looked up)": "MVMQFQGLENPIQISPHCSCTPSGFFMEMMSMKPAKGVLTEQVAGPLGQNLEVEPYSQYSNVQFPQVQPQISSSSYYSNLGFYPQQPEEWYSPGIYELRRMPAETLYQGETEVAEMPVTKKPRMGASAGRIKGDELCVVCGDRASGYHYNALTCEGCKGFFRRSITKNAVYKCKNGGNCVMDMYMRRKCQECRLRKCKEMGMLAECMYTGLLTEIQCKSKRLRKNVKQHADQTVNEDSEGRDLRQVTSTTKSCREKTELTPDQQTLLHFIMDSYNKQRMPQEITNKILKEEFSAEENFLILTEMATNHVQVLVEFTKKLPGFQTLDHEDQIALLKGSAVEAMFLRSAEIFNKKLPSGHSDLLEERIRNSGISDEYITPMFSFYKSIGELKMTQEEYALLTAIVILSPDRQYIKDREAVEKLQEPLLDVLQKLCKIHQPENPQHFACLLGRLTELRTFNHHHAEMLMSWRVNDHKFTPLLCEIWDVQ", "assay": "qHTS assay to identify small molecule antagonists of the farnesoid-X-receptor (FXR) signaling pathway (AID 743217; active = well fitted inhibition curve with a large enough effect in the signal ratio in the repeat runs, not every such curve was filed as active; inconclusive = weak or mixed curves, or effect the other way; inactive = no such curve, though single readings can be large or run the other way; the % refers to the signal ratio; also: % is scaled to controls: 0 for no effect and ±100 for the full control effect)", "conditions": "HEK293T FXR-UAS-bla, beta-lactamase ratio, CDCA-stimulated, 16 h; activity change, negative = inhibition: at 62.6 µM (top of the series) unless noted", "method_in_brief": "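FXR-UAS-bla HEK 293T cells pre-incubated 5 h at 37 °C, then exposed to compounds with chenodeoxycholic acid (50 uM final) for 16 h at 37 °C. Beta-lactamase reporter read by LiveBLAzer B/G FRET substrate fluorescence after 2 h at room temperature.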"}, "[12]": {"molecular_target": "Vitamin D3 receptor (Homo sapiens) (UniProt P11473)", "sequence (P11473 whole entry, looked up)": "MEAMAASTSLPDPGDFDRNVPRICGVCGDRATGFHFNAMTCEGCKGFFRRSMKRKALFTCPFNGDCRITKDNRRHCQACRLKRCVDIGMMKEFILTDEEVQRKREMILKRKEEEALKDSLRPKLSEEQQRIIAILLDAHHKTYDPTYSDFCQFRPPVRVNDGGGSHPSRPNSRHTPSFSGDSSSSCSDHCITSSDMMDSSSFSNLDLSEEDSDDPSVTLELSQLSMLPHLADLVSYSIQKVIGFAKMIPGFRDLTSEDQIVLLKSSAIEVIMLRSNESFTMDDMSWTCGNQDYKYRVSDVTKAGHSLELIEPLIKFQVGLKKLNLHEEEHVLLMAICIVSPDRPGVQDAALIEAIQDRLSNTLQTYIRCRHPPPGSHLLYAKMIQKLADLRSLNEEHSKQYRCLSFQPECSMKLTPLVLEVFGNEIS", "assay": "qHTS assay to identify small molecule antagonists of the vitamin D receptor (VDR) signaling pathway (AID 743223; active = well fitted inhibition curve with a large enough effect in the signal ratio in the repeat runs, not every such curve was filed as active; inconclusive = weak or mixed curves, or effect the other way; inactive = no such curve, though single readings can be large or run the other way; the % refers to the signal ratio; also: % is scaled to controls: 0 for no effect and ±100 for the full control effect)", "conditions": "VDR-UAS-bla HEK293T, beta-lactamase FRET ratio, 16 h; activity change, negative = inhibition: at 61 µM (top of the series) unless noted", "method_in_brief": "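Antagonist mode: compound added to VDR-bla cells alongside agonist 1alpha,25-dihydroxyvitamin D3 (3 nM final), incubation 16 h at 37C. Read-out is LiveBLAzer FRET fluorescence, 2 h at room temperature.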"}, "[13]": {"assay": "qHTS assay to identify small molecule antagonists of the estrogen related receptor (ERR) signaling pathway from Tox21 library - cell viability counter screen (AID 1224834); also: potency is read from the fitted curve at half-maximal effect; nearly all actives have a fitted effect of over 30% in size", "method_in_brief": "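ERR reporter cells were plated 6 h before compound addition, then exposed to test compounds in DMSO for 17.5 h at 37 C. Viability was read as CellTiter-Fluor fluorescence after a 30-minute incubation at 37 C.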"}, "[14]": {"assay": "qHTS assay to identify small molecule agonists of the constitutive androstane receptor (CAR) signaling pathway - cell viability counter screen (AID 1224836); also: potency is read from the fitted curve at half-maximal effect; nearly all actives have a fitted effect of over 45% in size", "method_in_brief": "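Cell viability multiplexed with the CAR agonist screen: CellTiter-Fluor fluorescence after 23 hr at 37 C. HepG2-CYP2B6-hCAR cells got compounds at 15 concentrations with PK11195 at 0.75 uM final.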"}}, "note": "“And” between values parts separate entries of the source, which are not always exact repeats. Equal values may be shown once. The inconclusive results got no clear call from the source; some entries with a clear call stand among them for comparison. For part of these data: A potency beside an inconclusive call is a rough fit, not a confirmed value. The source made the active and inactive calls. Unless noted, calls follow the shape of the dose curve; as a rule, active = well fitted curve in the direction sought with a large enough effect in the repeat runs; inconclusive = weak or mixed curves; inactive = no such curve, though single readings can be large; an effect the other way counts as inactive or inconclusive. Tags tell the direction and shape of the fitted curve or compound fluorescence and quenching."}
{"smiles": "COc1ccc([N+](=O)[O-])cc1N", "values": [{"measurement": "Potency", "setting": "[1]", "value": "inconclusive: 13.7 µM [falling, partial curve, poor fit]"}, {"measurement": "Potency", "setting": "[2]", "value": "active: 48.8 µM"}, {"measurement": "ratio activity, negative = MMP loss", "setting": "[2]", "value": "inconclusive: 5.02%"}, {"measurement": "Potency", "setting": "[3]", "value": "inactive and inconclusive: 68.6 µM [cytotoxic]"}, {"measurement": "Potency", "setting": "[4]", "value": "inactive and inconclusive: 34.4 µM [cytotoxic, partial curve, poor fit]"}, {"measurement": "Potency", "setting": "[5]", "value": "inconclusive: 22 µM [cytotoxic, single point]"}, {"measurement": "Potency", "setting": "[6]", "value": "inactive"}, {"measurement": "Potency", "setting": "[7]", "value": "inconclusive: 48.8 µM [activator, partial curve, poor fit] and inconclusive: 68.6 µM [activator, single point]"}, {"measurement": "Potency", "setting": "[8]", "value": "inactive"}, {"measurement": "Potency", "setting": "[9]", "value": "inactive"}, {"measurement": "ratio activity, negative = inhibition", "setting": "[10]", "value": "inconclusive: 2.44% [at 80.4 µM]"}, {"measurement": "Potency", "setting": "[11]", "value": "inactive"}, {"measurement": "Potency", "setting": "[12]", "value": "inactive"}, {"measurement": "Potency", "setting": "[13]", "value": "inconclusive: 38.7 µM [cytotoxic, partial curve, poor fit]"}, {"measurement": "Potency", "setting": "[14]", "value": "inconclusive: 68.6 µM [cytotoxic, partial curve, poor fit]"}]}
